Laboratory results: ChEMBL document CHEMBL4888484, “Replenishing the malaria drug discovery pipeline: Screening and hit evaluation of the MMV Hit Generation Library 1 (HGL1) against asexual blood stage Plasmodium falciparum ,using a nano luciferase reporter read-out” (2022)
In all, about 150,000 compounds went through this assay and about 540 (0.36%) showed an effect of 50% or more. This is one part of the list.

The molecules below were run on Plasmodium falciparum (assay: Primary screen in NF54 nanoGlo assay, in single point, at 2uM, 72h; a lower Z score goes with more inhibition). Conditions: timepoint 72 hour.
Format: functional, Erythrocyte

| SMILES | % Inhibition [%] | Z score |
| --- | --- | --- |
| O=C(Cn1nnnc1-c1ccccc1F)Nc1ccc(N2CCOCC2)cc1 | 2 | -0.22 |
| COCCn1ccnc1-c1nc(C(C)C)cs1 | -6 | 0.87 |
| COc1ccccc1[C@@H]1C=C(C(=O)O)Nc2c(C(=O)Nc3ccccc3)cnn21 | -11 | 1.41 |
| C[C@@H](CN1CCOCC1)N(C)S(=O)(=O)Cc1ccc(F)cc1C#N | -7 | 0.92 |
| COc1ccc([C@H]2CCc3nc(C(=O)N4CCN(c5ccccc5F)CC4)cn3C2)c(OC)c1 | -6 | 0.94 |
| CCN(C(=O)c1ccc2nc[nH]c2n1)[C@@H](C)Cc1ccc(OC)cc1 | -7 | 1.11 |
| CN(C)C(=O)CN1CC[C@H](NC(=O)c2cccc(C(F)(F)F)c2)[C@@H](O)C1 | -3 | 0.53 |
| CC(Oc1cccc2ccccc12)C(=O)NC1CCCC(C(N)=O)C1 (stereo not given) | -17 | 1.51 |
| COC(=O)c1nc(NCC2CCCOC2C(C)C)sc1C (stereo not given) | 6 | -1.09 |
| CC1CCN(c2ccc(N3CCN(C(=O)c4ccco4)CC3)nn2)CC1 | -11 | 1.76 |
| OCc1ccccc1NCc1cnc2ccc(Br)cn12 | -12 | 1.39 |
| COc1ccc(-c2ccc3nc[nH]c3c2)c(C)c1 | -14 | 2.77 |
| COc1ccc2[nH]c(-c3nnc(-c4ccccc4F)s3)cc2c1 | -2 | 0.27 |
| CCCc1cc(NCCc2n[nH]c(=O)[nH]2)nc(C)n1 | -7 | 1.06 |
| Cc1cccc(OCc2nc(C(=O)N3CCOCC3)cs2)c1C | 16 | -2.5 |
| COc1cccc2c(C(=O)N3CC(O)(C(F)F)C3)n[nH]c12 | -24 | 3.16 |
| Cc1nc(-c2ccccc2)nc2c1[C@@H]1[C@H](C2)C1(C)C | -2 | 0.31 |
| COc1ccc(-n2nc(C)c3sc(N4CCN(C(=O)c5ccc(C)c(F)c5)CC4)nc32)cc1 | -7 | 0.79 |
| COC[C@H]1CCCCN(C(=O)c2ccc(C3CCOCC3)cc2)C1 | 13 | -2.56 |
| Oc1ccc2c(c1)CC[C@H](NCc1ccns1)C2 | -4 | 0.37 |
| CC(C)c1cc(CN2CCC(n3nccc3NC(=O)c3cccnc3)CC2)n[nH]1 | 5 | -0.66 |
| C[C@]1(c2nc(-c3cccc4ccccc34)no2)CCNC(=O)C1 | -7 | 1.33 |

| SMILES | % Inhibition [%] | Z score |
| --- | --- | --- |
| CCN(Cc1cccc2[nH]ccc12)[C@H]1CCOC(C)(C)C1 | -7 | 1.38 |
| CCN(C)C(=O)NCC(C)(C)c1ccccc1Br | 1 | -0.24 |
| Cn1cc(C(=O)N2CC[C@H]3[C@H](CCC(=O)N3CCC3=CCCCC3)C2)cn1 | -15 | 1.89 |
| O=C1N(C2CCCCC2)C(c2ccccc2)=N[C@@]1(Nc1ncccn1)C(F)(F)F | -1 | 0.2 |
| CCn1cc(OCc2nc([C@H](C)OC)no2)cn1 | -7 | 1 |
| Cc1onc(-c2ccccc2Cl)c1C(=O)Nc1ccc2c(c1)N(C)C(=O)C(C)(C)CO2 | 0 | 0.03 |
| O=C(NCc1ccccc1F)C1Cc2cc(C(F)(F)F)ccc2N2CCN(c3ccccc3)CC12 (stereo not given) | -7 | 0.9 |
| c1ccc(-c2nc(-c3ccc(-n4ccnc4)nc3)no2)cc1 | -3 | 0.3 |
| CC(=O)N[C@@H]1CC[C@H]2CCOc3ccccc3C(=O)N3CCN(CCC(C)(C)C)C[C@H]3C(=O)NC[C@H]1O2 | 11 | -1.26 |
| O=C(NCc1cccnc1-c1cccnc1)c1ccc2c(c1)OCO2 | 3 | -0.46 |
| O=C(NCCC1=CCCCC1)c1cc2n(n1)CCCN(Cc1ccc(Cl)cc1)C2=O | -6 | 1.15 |
| C[C@@H]1CN(CCC2CCCCO2)C[C@H](C)N1CCC1CCCCO1 (stereo not given in full) | -17 | 1.78 |
| OC1c2ccccc2CC1NCc1ccc(Cl)cc1-n1cncn1 (stereo not given) | -8 | 1.3 |
| Cc1nc2ncnn2c(N2CCCC2)c1C | -12 | 1.99 |
| O=C(O)c1cc(N2CCC[C@H](c3nccn3Cc3ccccc3)C2)ccn1 | 2 | -0.27 |
| CCc1cccc(OC[C@@H](O)Cn2c(NC3CCCCC3)nc3c2c(=O)n(C)c(=O)n3C)c1 | 3 | -0.42 |
| O=S(=O)(CC[C@H]1CCOC1)NCc1nnc2n1CCCCC2 | -16 | 2.61 |
| O=C(c1nc2ccccc2s1)N1CCC(S(=O)(=O)c2ccc(F)cc2)CC1 | -17 | 2.24 |
| O=C(NCc1oc2ccc(Cl)cc2c1-c1ccccc1)[C@H]1CCOC1 | 11 | -1.22 |
| CCCN1CCCC[C@H]1C(=O)Nc1ccn(CCCn2ccnc2)n1 | -2 | 0.31 |
| Cc1nccn1CCn1ccnc1-c1ccccn1 | -4 | 0.49 |
| COCCn1cncc1CN(Cc1ccc(C)s1)C1CCCC1 | -2 | 0.19 |

| SMILES | % Inhibition [%] | Z score |
| --- | --- | --- |
| Cc1cnc(CNC(=O)c2cc3nccc(C(F)(F)F)n3n2)c(C)c1 | 5 | -0.74 |
| COc1cc2c(cc1OC)CN(C(=O)c1cc3c(nc1OC)CCC3)CC2 | -18 | 3.35 |
| Cc1ncnc(-c2ccc([C@H](C)N3CCCCC3)cc2)c1C | 3 | -0.53 |
| Cc1ccc2c(=O)c(C(=O)Nc3ccc(Br)cc3)c[nH]c2n1 | -11 | 1.51 |
| Cc1[nH][nH]c(=O)c1CC(=O)NC(c1ccc(F)cc1F)[C@H]1C[C@H](O)C1 (stereo not given in full) | 12 | -1.61 |
| OC(COc1cccc2ccccc12)CN1CCCN2CCCC2C1 (stereo not given) | -9 | 0.96 |
| CC1(c2ccc(Cl)s2)NC(=O)N(CC2CC3CCC2O3)C1=O (stereo not given) | -14 | 2.11 |
| O=S(=O)(CC1CCCC1(F)F)NCCN1CC2CCC(C1)O2 (stereo not given) | 3 | -0.5 |
| Cc1ccn(CC(=O)N2CCCC[C@@]2(C)c2noc(-c3ccc(F)cc3)n2)n1 | 32 | -3.66 |
| Cn1ccc2ccc(CN3C[C@H]4CN(C5CCCC5)C[C@@]4(C(=O)O)C3)cc21 | -4 | 0.6 |
| C[C@@]1(O)CCN(Cc2ccccc2Cl)[C@@H](c2ccccc2)[C@@H]1NC(=O)c1ccc(F)cc1 | -15 | 2.27 |
| Cc1cc(C)nc(Cn2cnc3cn(C)nc3c2=O)n1 | 0 | -0.03 |
| O=C(Nc1ccccc1Br)C1CCN([C@H](C(=O)O)C2CC2)CC1 | -8 | 1.01 |
| CC(C)(C)CS(=O)(=O)NC(=O)CCc1cncc(F)c1 | -4 | 0.43 |
| CC(C)c1csc(CN2CCC[C@H](CCC(=O)N3CCOCC3)C2)n1 | -12 | 2.32 |
| O=C1CC(c2ccccc2)N(C(=O)C2Cc3ccccc3O2)CCN1 (stereo not given) | -15 | 1.72 |
| Cc1cccc2nc(-c3ccco3)c(Nc3ccc4c(c3)OCO4)n12 | -9 | 1.02 |
| CC(C)(C)n1ncnc1[C@@H]1[C@H]2[C@@H]3CC[C@@H](C3)[C@@H]12 | -7 | 1.02 |
| CCc1ccc(S(=O)(=O)N2CCCN(C(C)C)CC2)s1 | -12 | 1.2 |
| CC(C)c1ocnc1C(=O)N1CC2CC=CCC2C1 (stereo not given) | 3 | -0.36 |
| O=C(CN1CCC(OC[C@H]2CCCO2)CC1)Nc1nccs1 | -1 | 0.21 |
| O=C1CCC(=O)N1C1CC2CCC(C1)N2S(=O)(=O)C1CC1 (stereo not given) | -8 | 0.93 |

| SMILES | % Inhibition [%] | Z score |
| --- | --- | --- |
| C1CCC(c2nc3c(c(NCc4noc([C@@H]5CCCO5)n4)n2)CNC3)C1 | 8 | -1.11 |
| COc1ccc(-c2noc([C@@H]3CCCN3C(=O)C3CCCC3)n2)cc1 | -7 | 1.09 |
| O=C(c1cnn2cccc(Br)c12)N1CC[C@@](F)(CO)C1 | 7 | -1.25 |
| CN(C)c1ccc(NC(=O)N2CCOCC2)cn1 | 3 | -0.44 |
| O=C(c1cccc(-c2noc(-c3ccco3)n2)c1)N1CCCC1 | -18 | 2.45 |
| Cc1cc(C)n2cc(COC(=O)c3ccc(O)cc3)nc2n1 | -4 | 0.65 |
| CC[C@H]1CCCCCN1C(=O)Cc1ccc(-n2cnnc2)cc1 | 2 | -0.52 |
| Cc1nc(C)c(CN[C@@H](CCO)C2CCCCC2)s1 | -9 | 1.22 |
| O=C(Cn1cccn1)N1CCCC[C@H]1c1nc(-c2ccccc2)c[nH]1 | -4 | 0.72 |
| CC(CS(=O)(=O)c1ccccc1)NC(C)c1cccc(-n2cncn2)c1 (stereo not given) | -1 | 0.15 |
| COc1ccc([C@@H](NCc2noc(C)n2)C2CCOCC2)cc1 | 2 | -0.32 |
| O=C(NCCCN1CCCC1=O)Nc1nc(-c2ccccc2)cs1 | -5 | 0.58 |
| CN1CCC(CNc2ncccc2F)(N2CCCCC2)CC1 | -2 | 0.24 |
| COC(=O)C1(C)CCN(CC(O)C(F)(F)F)C1 (stereo not given) | -5 | 0.67 |
| C[C@@H](C1CCC1)N(C)C(=O)c1cn(C2CCOCC2)nn1 | -10 | 1.37 |
| CCOc1cc(C(=O)N(C)C)ccc1NC1CC(C)N(C2CC2)C1 (stereo not given) | -11 | 1.2 |
| CCC1(CC)NC(=O)N(CC(=O)N2CCCC2)C1=O | 4 | -0.77 |
| CCC(C)c1nc(C(C)NC(=O)CCc2ccc(Cl)s2)n[nH]1 (stereo not given) | 7 | -1.18 |
| O=C(Cn1nc(-c2ccccc2)ccc1=O)N1CCN(c2ccc(F)cc2)CC1 | -5 | 0.7 |
